Test results reported in US20090311253A1 (AbbVie / Abbott, published 2009).

T1: IL-6R on cells (UniProt P08887 20-468, limits assumed)
T1 construct: whole, on cells
T1 sequence (looked up): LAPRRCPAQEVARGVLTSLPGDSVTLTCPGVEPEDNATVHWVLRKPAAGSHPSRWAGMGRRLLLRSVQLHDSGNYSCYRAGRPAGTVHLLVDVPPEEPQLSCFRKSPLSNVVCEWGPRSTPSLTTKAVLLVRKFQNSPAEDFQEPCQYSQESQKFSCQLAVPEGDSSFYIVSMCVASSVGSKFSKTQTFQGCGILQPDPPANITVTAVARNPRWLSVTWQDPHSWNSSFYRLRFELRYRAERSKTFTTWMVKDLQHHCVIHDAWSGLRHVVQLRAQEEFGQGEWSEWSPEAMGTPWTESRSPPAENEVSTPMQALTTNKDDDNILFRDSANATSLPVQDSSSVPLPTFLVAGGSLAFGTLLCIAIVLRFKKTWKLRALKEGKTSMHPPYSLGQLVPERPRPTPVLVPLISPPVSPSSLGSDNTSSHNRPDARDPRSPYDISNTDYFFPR

T2: Recombinant Human TRANCE/RANKL/TNFSF 11 (human, UniProt O14788 69-317)
T2 construct: extracellular domain
T2 sequence (looked up): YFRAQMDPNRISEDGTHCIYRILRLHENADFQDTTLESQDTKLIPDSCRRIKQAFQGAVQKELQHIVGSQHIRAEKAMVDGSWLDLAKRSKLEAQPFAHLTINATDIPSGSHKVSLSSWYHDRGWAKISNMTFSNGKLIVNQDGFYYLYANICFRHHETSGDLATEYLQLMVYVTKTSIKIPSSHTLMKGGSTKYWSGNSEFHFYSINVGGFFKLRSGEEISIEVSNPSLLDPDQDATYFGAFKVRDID

T3: Recombinant Human IL-6 sR (human, UniProt P08887 20-358, limits assumed)
T3 construct: domain: IL-6 sR; soluble receptor; also called IL-6R
T3 sequence (looked up): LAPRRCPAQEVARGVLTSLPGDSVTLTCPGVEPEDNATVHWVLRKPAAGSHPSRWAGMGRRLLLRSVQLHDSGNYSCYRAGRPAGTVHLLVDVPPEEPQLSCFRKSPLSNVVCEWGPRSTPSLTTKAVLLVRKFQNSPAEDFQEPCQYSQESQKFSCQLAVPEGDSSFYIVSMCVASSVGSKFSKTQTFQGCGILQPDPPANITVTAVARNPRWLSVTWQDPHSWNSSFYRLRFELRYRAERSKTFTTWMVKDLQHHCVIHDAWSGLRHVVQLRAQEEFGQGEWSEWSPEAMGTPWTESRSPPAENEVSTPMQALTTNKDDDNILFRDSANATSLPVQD

T4: Recombinant Human IL-4 (human, UniProt P05112 25-153)
T4 sequence (looked up): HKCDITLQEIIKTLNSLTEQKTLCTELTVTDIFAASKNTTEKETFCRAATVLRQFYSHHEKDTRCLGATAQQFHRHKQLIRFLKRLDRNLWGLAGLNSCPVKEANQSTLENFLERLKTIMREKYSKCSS


Columns and labels:
[1] = molecular target: T1, IL-6R on cells; assay: flow cytometry on cells, 2 µg/mL
Procedure: Stable cell lines overexpressing a cell-surface antigen of interest or human tumor cell lines were harvested from tissue culture flasks and resuspended in phosphate buffered saline (PBS) containing 5% fetal bovine serum (PBS/FBS). Prior to staining, human tumor cells were incubated on ice with (100 μl) human IgG at 5 μg/ml in PBS/FCS. 1−5×10⁵ cells were incubated with antibody or DVD-Ig (2 μg/mL) in PBS/FBS for 30-60 minutes on ice. […] After 30 minutes incubation on ice, cells were washed twice and resuspended in PBS/FBS. Fluorescence was measured using a Becton Dickinson FACSCalibur (Becton Dickinson, San Jose, Calif.).
The geometric mean is the n root of the multiplication product of n fluorescent signals (a1×a2×a3 . . . an). With log-transformed data the geometric mean is used to normalize the weighting of the data distribution.

[2] = molecular target: T2, Recombinant Human TRANCE/RANKL/TNFSF 11; assay: direct bind ELISA
Procedure: (§1) Enzyme Linked Immunosorbent Assays to screen for antibodies that bind a desired target antigen were performed as follows. High bind ELISA plates (Corning Costar # 3369, Acton, Mass.) were coated with 100 μL/well of 10 μg/ml of desired target antigen (R&D Systems, Minneapolis, Minn.) or desired target antigen extra-cellular domain/FC fusion protein (R&D Systems, Minneapolis, Minn.) or monoclonal mouse anti-polyhistidine antibody (R&D Systems # MAB050, Minneapolis, Minn.) in phosphate buffered saline (10×PBS, Abbott Bioresearch Center, Media Prep# MPS-073, Worcester, Mass.) overnight at 4° C. Plates were washed four times with PBS containing 0.02% Tween 20. Plates were blocked by the addition of 300 μL/well blocking solution (non-fat dry milk powder, various retail suppliers, diluted to 2% in PBS) for ½ hour at room temperature. Plates were washed four times after blocking with PBS containing 0.02% Tween 20.
(§2) Plates were washed 4 times with PBS containing 0.02% Tween 20.
(§3) One hundred microliters of enhanced TMB solution (Neogen Corp. #308177, K Blue, Lexington, Ky.) was added to each well and incubated for 10 minutes at room temperature. The reaction was stopped by the addition of 50 μL 1N sulphuric acid. Plates were read spectrophotometrically at a wavelength of 450 nm.

[3] = molecular target: T3, Recombinant Human IL-6 sR; assay: direct bind ELISA
Procedure: as §1, §2, §3

[4] = molecular target: T4, Recombinant Human IL-4; assay: cell-based or functional assay
[5] = molecular target: T5, Recombinant Human IL-13 (human, UniProt P35225 in part, limits assumed); assay: cell-based or functional assay
[6] = molecular target: T5, Recombinant Human IL-13; assay: Biacore SPR
T5 sequence (P35225 35-146 limits assumed): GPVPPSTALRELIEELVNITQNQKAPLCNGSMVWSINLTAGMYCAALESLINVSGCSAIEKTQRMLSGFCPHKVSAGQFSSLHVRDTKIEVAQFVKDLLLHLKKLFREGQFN
Procedure: (§4) The BIACORE assay (Biacore, Inc, Piscataway, N.J.) determines the affinity of antibodies or DVD-Ig with kinetic measurements of on-rate and off-rate constants. Binding of antibodies or DVD-Ig to a target antigen (for example, a purified recombinant target antigen) is determined by surface plasmon resonance-based measurements with a BiacoreR 1000 or 3000 instrument (Biacore® AB, Uppsala, Sweden) using running HBS-EP (10 mM HEPES [pH 7.4], 150 mM NaCl, 3 mM EDTA, and 0.005% surfactant P20) at 25° C. All chemicals are obtained from Biacore® AB (Uppsala, Sweden) or otherwise from a different source as described in the text. For example, approximately 5000 RU of goat anti-mouse IgG, (Fcγ), fragment specific polyclonal antibody (Pierce Biotechnology Inc, Rockford, Ill.) diluted in 10 mM sodium acetate (pH 4.5) is directly immobilized across a CM5 research grade biosensor chip using a standard amine coupling kit according to manufacturer's instructions and procedures at 25 μg/ml. Unreacted moieties on the biosensor surface are blocked with ethanolamine. Modified carboxymethyl dextran surface in flowcell 2 and 4 is used as a reaction surface. Unmodified carboxymethyl dextran without goat anti-mouse IgG in flow cell 1 and 3 is used as the reference surface. For kinetic analysis, rate equations derived from the 1:1 Langmuir binding model are fitted simultaneously to association and dissociation phases of all eight injections (using global fit analysis) with the use of Biaevaluation 4.0.1 software. Purified antibodies or DVD-Ig are diluted in HEPES-buffered saline for capture across goat anti-mouse IgG specific reaction surfaces. Antibodies or DVD-Ig to be captured as a ligand (25 μg/ml) are injected over reaction matrices at a flow rate of 5 μl/min. The association and dissociation rate constants, kₒₙ (M⁻¹s⁻¹) and koff (s⁻¹) are determined under a continuous flow rate of 25 μl/min. Rate constants are derived by making kinetic binding measurements at different antigen concentrations ranging from […]. The equilibrium dissociation constant (M) of the reaction between antibodies or DVD-Igs and the target antigen is then calculated from the kinetic rate constants by the following formula: KD=koff/kₒₙ. Binding is recorded as a function of time and kinetic rate constants are calculated.

[7] = molecular target: T4, Recombinant Human IL-4; assay: Biacore SPR
Procedure: as §4

[8] = molecular target: T5, Recombinant Human IL-13; assay: direct bind ELISA
Procedure: as §1, §2, §3

[9] = molecular target: T4, Recombinant Human IL-4; assay: direct bind ELISA
Procedure: as §1, §2, §3

Row | FACS Geometric Mean [1] | EC50 [2] [nM] | EC50 [3] [nM] | IL-4 Neutralization Assay EC50 (A549 cells, hTARC) [4] [nM] | IL-13 Neutralization Assay EC50 (A549 cells, hTARC) [5] [nM] | Kd [6] [nM] | koff [6] [s⁻¹] | kon [6] [M⁻¹ s⁻¹] | koff [7] [s⁻¹] | kon [7] [M⁻¹ s⁻¹] | EC50 [8] [nM] | EC50 [9] [nM] | Binder
1 | 0.82 | 0.17 | 364 |  |  |  |  |  |  |  |  |  | DVD130 (bispecific antibody, human IgG1, kappa, vectors V1, V2; also called RANKL and IL-6R DVD-Ig) heavy: EVQLLESGGGLVQPGGSLRLSCAASGFTFSSYAMSWVRQAPGKGLEWVSGITGSGGSTYYADSVKGRFTISRDNSKNTLYLQMNSLRAEDTAVYYCAKDPGTTVIMSWFDPWGQGTLVTVSSASTKGPEVQLQESGPGLVRPSQTLSLTCTVSGYSITSDHAWSWVRQPPGRGLEWIGYISYSGITTYNPSLKSRVTMLRDTSKNQFSLRLSSVTAADTAVYYCARSLARTTAMDYWGQGSLVTVSS[left out - human IgG1 constant region] light: EIVLTQSPGTLSLSPGERATLSCRASQSVRGRYLAWYQQKPGQAPRLLIYGASSRATGIPDRFSGSGSGTDFTLTISRLEPEDFAVFYCQQYGSSPRTFGQGTKVEIKRTVAAPDIQMTQSPSSLSASVGDRVTITCRASQDISSYLNWYQQKPGKAPKLLIYYTSRLHSGVPSRFSGSGSGTDFTFTISSLQPEDIATYYCQQGNTLPYTFGQGTKVEIKRTVAAPSVFIFPPSDEQLKSGTASVVCLLNNFYPREAKVQWKVDNALQSGNSQESVTEQDSKDSTYSLSSTLTLSKADYEKHKVYACEVTHQGLSSPVTKSFNRGEC
2 |  |  |  | 0.73 | 0.9 | 0.589 | 0.000446 | 757000 | 0.00131 | 233000 | 583 | 3.13 | DVD268 (bispecific antibody, human IgG1, kappa, outer AB027, inner AB051; vectors V1, V2) heavy: QVTLRESGPALVKPTQTLTLTCTFSGFSLSTSGMGVSWIRQPPGKGLEWLAHIYWDDDKRYNPSLKSRLTISKDTSRNQVVLTMTNMDPVDTATYYCARRETVFYWYFDVWGRGTPVTVSSASTKGPEVTLRESGPGLVKPTQTLTLTCTLYGFSLSTSDMGVDWIRQPPGKGLEWLAHIWWDDVKRYNPALKSRLTISKDTSKNQVVLKLTSVDPVDTATYYCARTVSSGYIYYAMDYWGQGTLVTVSS[left out - human IgG1 constant region] light: DIVLTQSPSSLSASVGDRVTITCKASQSVDYDGDSYMNWYQQKPGKAPKLLIYAASNLESGIPSRFSGSGSGTDFTFTISSLQPEDIATYYCQQSNEDPPTFGQGTKVEIKRTVAAPDIQMTQSPSSLSASVGDRVTISCRASQDIRNYLNWYQQKPGKAPKLLIFYTSKLHSGVPSRFSGSGSGTDYTLTISSLQPEDIATYYCQQGLTPPLTFGGGTKVEIKRTVAAPSVFIFPPSDEQLKSGTASVVCLLNNFYPREAKVQWKVDNALQSGNSQESVTEQDSKDSTYSLSSTLTLSKADYEKHKVYACEVTHQGLSSPVTKSFNRGEC
